Measurements published in the supplement of paper PMC11417369.
The other results are listed elsewhere or left out.

system: PfSIP2 AP2 domain 1 (GST-tagged); test: gcPBM binding intensity (ln(normalized median fluorescence intensity)); higher = stronger DNA binding
Outline: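 Binding of GST-tagged P. falciparum DNA-binding domains, expressed in E. coli and used at about 25 μg on average, was carried out for 1 h in 1× PBS containing 1% milk, 0.2 mg/ml BSA, 0.5% salmon testes DNA and 0.03% Triton X-100. The target was an Agilent 4 × 180k array of primer-extended double-stranded 36-bp intergenic genomic probes plus negative controls, read with Alexa488 anti-GST antibody at 488 nm. Binding intensity is the highest Masliner-normalised natural-log median intensity across replicate spots of either probe orientation.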

| Sequence | gcPBM binding intensity (ln) |
| --- | --- |
| AAAAAAAAAAAAAATACACACACATAAAAAAAAAAA [CACACA_site8555] | 7.35 |
| GATATGGAATATATGTGTACATATATATATATTATA [XGTACX_site1724] | 7.23 |
| CAAATTTTTAAAAATGCATGTTCATCCATCCCATAT [TGCATGCA_site467] | 6.87 |
| TTTGTATGATCATAAAGTACTAATTTACATTCAGCA [XGTACX_site8596] | 6.91 |
| TTTTCATTCTTATATAAATATTATTTTATATAAAAT [GTGCAC_negctrl_site674] | 6.88 |
| ATATATGAAAATATATGTACACAACATATAAAATAG [XGTACX_site5132] | 7.33 |
| AATTATATACCATGCACACAAATATTCATACAGGAA [CACACA_site4057] | 7.59 |
| AAAAATATATATATATTTCTTCTTTGTTAAAATGTA [CACACA_negctrl_site1459] | 6.86 |
| GTAGAATCAGTATTCACACATAAATGTATCCAAATG [CACACA_site5395] | 6.92 |
| ATTTATATAAAATTAAAATAATACAAATTTATTCAT [GTGCAC_negctrl_site305] | 6.73 |
| TTTTCGCTTTTATAAAATTATATGAAAAAACTAAAA [XGTACX_negctrl_site139] | 6.99 |
| TTATGGAAAAATATAACACACAATGATTTTTTATAA [CACACA_site1831] | 6.8 |
| TGTAATACATGTTGTTGTACAATATCTTTAACTTTT [XGTACX_site1219] | 6.85 |
| TATTGTAAAAAAGCAAAATTTATCACCTCCTTATTT [CACACA_negctrl_site172] | 6.72 |
| TATAACTATGGGTGTACACATTAATCGTTTTTCTTT [CACACA_site5196] | 6.95 |
| TACACAAAAATAAACACACACACATATAAATAAATA [CACACA_site6599] | 7.04 |
| CCACTAAAGGCATATACACACATTTTTTAAATTGCC [CACACA_site2839] | 7 |
| TTTTTTACATTCTGCACACAATTTATTTTTTTTTTT [CACACA_site4188] | 7.08 |
| ATGAATGAATACGTTTTACACACTTGAATATAATTT [CACACA_site8237] | 6.85 |
| TATTTCACAAAAAAAAAAAAAAAAAAGAAGCAAAAA [CACACA_negctrl_site1040] | 6.76 |
| AACATAACAAAAAAAAAAAAAAATATATATATATAT [TGCATGCA_negctrl_site370] | 9.43 |
| GTATATTGTACCATCACACATGTAAAACATAGATGT [CACACA_site5359] | 7.17 |
| TCCTTAAAAAAACCTTAACACACATAAACTATAATT [CACACA_site9001] | 6.91 |
| TTTTTTTTTAAGTTTGCACACATGGAAGACAAAAAT [CACACA_site2505] | 7.96 |
